Test results published in PubChem BioAssay AID1347417 (National Center for Advancing Translational Sciences (NCATS), 2020).
Several values for one entry are separate records, joined by “and”; a condition that tells them apart may be missing. Identical values can stand only once. Among all 120,000 compounds or so, about 5,300 (4.4%) were called active. Inconclusive means that the source gave no clear call. Such entries were picked first, then a sample of the others. Calls follow the shape of the dose curve; as a rule, active = well fitted inhibition curve with a large enough effect; inconclusive = small, poorly fitted or top-dose-only effect; inactive = no such curve, though single readings can be large or run the other way. Potencies beside an inconclusive call are fits to weak or partial responses and may not hold up.

experiment: qHTS Primary assay for Inhibitors of Plasmodium falciparum Dd2 growth in vitro; also: nearly all actives have a fitted effect of over 65% in size; settings: P. falciparum Dd2 growth, SYBR Green, 72 h; series mostly up to 28.9 µM
Method in brief: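 Infected erythrocytes (Dd2, 0.3% parasitemia, 2.5% hematocrit final) are added to compound in RPMI-1640/Albumax II medium, grown 72 h at 37C in low oxygen, then lysed with saponin/Triton-X containing SYBR Green and read by fluorescence.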
Potency is read from the fitted curve at half-maximal effect; tags tell the direction and shape of the fitted curve.

With `COC[C@H]1CCCN1Cc1nc(C2(O)CCN(C(=O)C3CCOCC3)CC2)cs1` as the compound, how does the Potency read?
The Potency was “inactive”.

With `CCc1cccc(C)c1NC(=O)Cn1nc2n(c1=O)CCCCC2` as the compound, how does the Potency read?
The Potency was “inactive”.

Which Potency does the source give for `CS(=O)(=O)N1CCC(CC(=O)N2CC=C(c3ccccc3)CC2)C1` (stereo not given) here?
The Potency was inconclusive: 17.8 µM [inhibitor, single point].

With `Cc1ccc2nc(SCCC(=O)N[C@@H]3C[C@@H]4OCC[C@@H]43)cc(C)c2c1` as the compound, how does the Potency read?
Its Potency is inconclusive: 15.8 µM [inhibitor, partial curve, poor fit].

With `COCCCn1c(=N)c(C(=O)NCc2ccco2)cc2c(=O)n3cccc(C)c3nc21` as the compound, how does the Potency read?
Its Potency is inconclusive: 17.8 µM [inhibitor, single point].

With `COc1ccc(Cn2c(CCC(=O)Nc3ccc(C)cc3)nc3cccnc32)cc1` as the compound, how does the Potency read?
Its Potency is active: 10 µM.

Which Potency does the source give for `CNC(=O)CCn1ncc2cc(OCc3ccccc3-c3cccc(O)c3)ccc21` here?
The Potency was inconclusive: 11.2 µM [inhibitor, partial curve, poor fit].

With `Cc1cc(C)c(CN2CCC3(Cc4ccccc4CNC3=O)C2)c(C)c1` (stereo not given) as the compound, how does the Potency read?
The Potency was inconclusive: 10 µM [inhibitor, partial curve, poor fit].

For `CCN1c2cc(C(=O)NCc3ccccc3OC)ccc2C(=O)N2CCCCC21` (stereo not given), which Potency is on record?
Its Potency is inconclusive: 6.31 µM [inhibitor, single point].

Which Potency does the source give for `COc1ccc(CN2Cc3[nH]nc(-c4ccnn4C)c3CC2=O)cc1` here?
Its Potency is inconclusive: 2.24 µM [inhibitor, full curve].

With `Cc1cccc(-n2ncc(C(=O)N3CCN(Cc4ccccc4)CC3)c2C2CCN(C(=O)OC(C)(C)C)CC2)c1` as the compound, how does the Potency read?
The Potency was active: 7.94 µM.

For `CCC(=O)N1Cc2ccccc2CC2(CCN(Cc3ccc(O)cc3)C2)C1` (stereo not given), which Potency is on record?
The Potency was inconclusive: 7.94 µM [inhibitor, partial curve, poor fit].

With `Cc1ccc(-n2ncc(C(=O)NCCN3CCCC3)c2C2CCN(C(=O)OC(C)(C)C)CC2)cc1` as the compound, how does the Potency read?
Its Potency is inconclusive: 3.55 µM [inhibitor, single point].

With `CC(C)CCN1CCC2(CC1)Cc1ccccc1NC2=O` as the compound, how does the Potency read?
The Potency was “inactive”.

For `Cc1ccc2nc(C3CCCN(Cc4ccccc4)C3)[nH]c(=O)c2c1` (stereo not given), which Potency is on record?
Its Potency is inconclusive: 8.91 µM [inhibitor, partial curve] and inconclusive: 10 µM [inhibitor, partial curve, poor fit].

With `Cc1ccc(OCc2nc(-c3ccc(C(=O)N4CCN(c5cccc(C(F)(F)F)c5)CC4)cc3)oc2C)cc1` as the compound, how does the Potency read?
Its Potency is inconclusive: 15.8 µM [inhibitor, single point].

Which Potency does the source give for `COc1ccc(-c2nnc3n2CCN(C(=O)c2cccc(Cl)c2)C3)cc1` here?
Its Potency is “inactive”.

With `CCCn1c(C)c(CC(=O)NC(C)Cn2cccn2)c2c1CC(C)(C)CC2=O` (stereo not given) as the compound, how does the Potency read?
Its Potency is inconclusive: 17.8 µM [inhibitor, single point].

For `Cc1ccc(C(=O)N2CCC(n3cc(-c4nc(C(C)C)no4)nn3)C2)cc1` (stereo not given), which Potency is on record?
Its Potency is “inactive”.

With `CCOC(=O)C1(Cc2cccc(OC)c2)CCCN(C(=O)CCn2ccnc2C)C1` (stereo not given) as the compound, how does the Potency read?
Its Potency is inconclusive: 0.316 µM [inhibitor, full curve, poor fit].

For `CC(C)c1ccc(CC(=O)N2CCCc3ncc(C(=O)NCCN(C)C)cc32)cc1`, which Potency is on record?
Its Potency is inconclusive: 11.2 µM [inhibitor, single point].

For `COc1cc(NC(=O)O[C@@H]2CC[C@]3(C)C(CC[C@@H](O)[C@H]3CC(=O)N3CC[C@@H](O)C3)[C@]2(C)CO)cc(OC)c1OC` (stereo not given in full), which Potency is on record?
The Potency was inconclusive: 20 µM [inhibitor, single point].

Which Potency does the source give for `Cc1cccc(NC(=O)N2CCCC(c3nnnn3C)C2)c1` (stereo not given) here?
Its Potency is “inactive”.

For `Cc1cccc(C)c1NC(=O)C(=O)NCC(c1ccc2c(c1)OCO2)N1CCOCC1` (stereo not given), which Potency is on record?
Its Potency is inconclusive: 8.91 µM [inhibitor, partial curve].

For `CN(CCn1cc(-c2nccn2C)nn1)S(C)(=O)=O`, which Potency is on record?
Its Potency is inconclusive: 0.0631 µM [inhibitor, full curve, poor fit].

With `CN1CCN(c2ccc3ncc(Nc4cccc(C(F)(F)F)c4)n3n2)CC1` as the compound, how does the Potency read?
Its Potency is inconclusive: 3.55 µM [inhibitor, single point].

For `O=C(Nc1ccc2nc(SCC(=O)N3CCc4ccccc43)sc2c1)c1cccc(F)c1`, which Potency is on record?
The Potency was inconclusive: 0.891 µM [inhibitor, single point].

For `O=C(c1ccc(C(F)(F)F)cc1)N1CCC2(CC1)CNc1ccccc1[S+](=O)([O-])N2`, which Potency is on record?
Its Potency is inconclusive: 5.62 µM [inhibitor, partial curve].

For `Cc1ccc(C(C)CCN2CCC(n3nccc3NC(=O)Cc3ccccc3)CC2)o1` (stereo not given), which Potency is on record?
Its Potency is inconclusive: 11.2 µM [inhibitor, partial curve, poor fit].

With `Cc1cc(C)n(CCC(=O)N2CCCC(c3noc(COc4ccccc4)n3)C2)n1` (stereo not given) as the compound, how does the Potency read?
The Potency was inconclusive: 5.62 µM [inhibitor, partial curve, poor fit].

Which Potency does the source give for `CCOc1ccccc1NC(=O)CSc1nc2c(sc3ccccc32)c(=O)n1CCCC(=O)NC1CCCC1` here?
The Potency was inconclusive: 1.12 µM [inhibitor, partial curve, poor fit].

For `COc1ccc(C2(C(=O)N3CCCCCCN(C)C(=O)[C@@H]4CCC[C@@H]43)CC2)cc1`, which Potency is on record?
Its Potency is “inactive”.

With `O=C(c1cccc(Br)c1)N1CCN(c2cc(-c3ccc(Cl)cc3)[nH]n2)CC1` as the compound, how does the Potency read?
The Potency was inconclusive: 3.98 µM [inhibitor, single point].

For `Fc1ccc(Cc2nc3nccc(-c4ccccc4)n3n2)cc1`, which Potency is on record?
The Potency was inconclusive: 20 µM [inhibitor, partial curve, poor fit].

Which Potency does the source give for `O=C(NCc1ccc(F)cc1)N1C[C@@H](CN2CCOCC2)[C@@H](CO)C1` here?
Its Potency is “inactive”.

With `COCc1cc(C[C@@H]2CC[C@H](O)[C@@H](CN(CC3CCCCC3)CC3CCCCC3)O2)no1` as the compound, how does the Potency read?
Its Potency is active: 3.16 µM.

For `COc1cc(Cl)c(NC(=O)c2cc(S(=O)(=O)N3CCCCC3)c[nH]2)c(OC)c1`, which Potency is on record?
Its Potency is inconclusive: 17.8 µM [inhibitor, single point].

For `COc1cc(CN2CCC3(CC2)C(=O)NCN3Cc2ccc(Cl)cc2)ccc1F`, which Potency is on record?
Its Potency is inconclusive: 0.158 µM [inhibitor, full curve, poor fit].

Which Potency does the source give for `COc1cccc(C(=O)N2CCC(N3C[C@H](O)C[C@H]3C(=O)NCc3cccc(F)c3)CC2)c1` here?
The Potency was inconclusive: 20 µM [inhibitor, single point].

With `COCCn1cnc2ccc(OCc3ccc(C(F)(F)F)cc3)nc2c1=O` as the compound, how does the Potency read?
The Potency was “inactive”.

Which Potency does the source give for `NCc1cccc(-c2cccnc2)c1` here?
Its Potency is inconclusive: 39.8 µM [inhibitor, single point].

For `CCc1cccc(CC)c1NC(=O)C1CCC(CNS(=O)(=O)c2cccc3nsnc23)CC1` (stereo not given), which Potency is on record?
The Potency was active: 3.16 µM.

With `O=C(Nc1ccc(-c2nnc3n2CCCC3)cc1)c1ccc(F)cc1F` as the compound, how does the Potency read?
The Potency was inconclusive: 15.8 µM [inhibitor, single point].

Which Potency does the source give for `CCOC(=O)c1c(NC(=O)c2cc(OCC)c(OCC)c(OCC)c2)sc2c1CCCCC2` here?
The Potency was inconclusive: 11.2 µM [inhibitor, single point].

For `CCN(CC)CCNC(=O)C(=O)NCC(c1cccnc1)N1CCN(c2ccc(F)cc2)CC1` (stereo not given), which Potency is on record?
Its Potency is inconclusive: 17.8 µM [inhibitor, single point].

For `CCc1ccc(C2c3c(oc4ccc(F)cc4c3=O)C(=O)N2CCc2ccc(OC)cc2)cc1` (stereo not given), which Potency is on record?
The Potency was inconclusive: 7.08 µM [inhibitor, partial curve, poor fit].

With `CC(C)CCN1CCc2nc(C(=O)Nc3ccc(Cl)cc3)oc2CC1` as the compound, how does the Potency read?
The Potency was inconclusive: 11.2 µM [inhibitor, partial curve].

With `Cc1ccc(C(=O)N2C[C@@H](F)[C@@H](OCc3nc4ccccc4n3C)C2)cc1` as the compound, how does the Potency read?
The Potency was “inactive”.

Which Potency does the source give for `CSc1ccc(-c2ccccc2CN)cc1` here?
Its Potency is inconclusive: 7.94 µM [inhibitor, partial curve, poor fit].

With `Cc1ccccc1CC(=O)NC1CCN(c2cc(-c3ccccc3)[nH]n2)CC1` as the compound, how does the Potency read?
The Potency was inconclusive: 8.91 µM [inhibitor, single point].

With `Cc1cccc(N2CCN(C(=O)c3cnn(-c4ccccc4Cl)c3C3CCN(C(=O)OC(C)(C)C)CC3)CC2C)c1` (stereo not given) as the compound, how does the Potency read?
The Potency was inconclusive: 7.94 µM [inhibitor, partial curve, poor fit].

With `Cc1ccc(CN2CC3(C2)NC(=O)c2ccccc2O3)cc1` as the compound, how does the Potency read?
Its Potency is inconclusive: 3.55 µM [inhibitor, partial curve, poor fit].

Which Potency does the source give for `CC(C)CN1C(=O)COC[C@@H]1[C@H](O)c1ccc(NC(=O)c2cccnc2)cc1` here?
The Potency was inconclusive: 31.6 µM [inhibitor, single point].

With `CN1C[C@H](NCc2cccc3c2OCO3)CCC[C@@H](C(=O)NCc2cc(F)cc(F)c2)CC1=O` as the compound, how does the Potency read?
Its Potency is inconclusive: 7.94 µM [inhibitor, partial curve, poor fit].

Which Potency does the source give for `O=C(Nc1ccccc1)N(Cc1c[nH]c2ccccc12)C1CCCCCC1` here?
The Potency was inconclusive: 7.08 µM [inhibitor, partial curve, poor fit].

With `O=C(NC1C[C@H]2CC[C@@H](C1)N2C(=O)CC1CCCCC1)c1ccc(F)cc1` (stereo not given in full) as the compound, how does the Potency read?
Its Potency is inconclusive: 17.8 µM [inhibitor, single point].

For `C=CCNc1ncnc2c1CCN(C(=O)c1ccccc1OCC)CC2`, which Potency is on record?
The Potency was inconclusive: 20 µM [inhibitor, partial curve, poor fit].

Which Potency does the source give for `CCc1ccccc1NC(=O)Cn1c(=O)n(CCCCCC(=O)NCc2ccc(C)cc2)c(=O)c2sccc21` here?
Its Potency is inconclusive: 10 µM [inhibitor, single point].

For `FC(F)(F)Oc1ccc(-c2cnc([C@@H]3COCCN3C3CCOCC3)[nH]2)cc1`, which Potency is on record?
Its Potency is inconclusive: 15.8 µM [inhibitor, single point].

With `O=C(c1ccc2c(c1)N(Cc1ccccc1F)C(=O)c1ccccc1S2(=O)=O)N1CCc2ccccc21` as the compound, how does the Potency read?
The Potency was inconclusive: 11.2 µM [inhibitor, partial curve, poor fit].
